For 24 molecules, melting point results are on record in patent US9464071B2 (priority 2010, dated 2016).

Where “and” joins values, the source holds several entries; their conditions need not be identical. Equal values may be shown once. Where a name gives a salt, the structure may show the parent alone.

Broadly, the melting point is the temperature, or range, at which the solid turns liquid. In turn, `COc1cc(OC)cc(N(C[C@@H](O)CNCC(F)(F)F)c2ccc3ncc(-c4cnn(C)c4)nc3c2)c1` showed a melting point of 126.8 °C.

As for `COc1cc(OC)cc(N(CCCN2CCCC2)c2ccc3ncc(-c4cnn(C)c4)nc3c2)c1`, the melting point came out at 167.79 °C.

As for `COc1cc(OC)cc(N(CCC#N)c2ccc3ncc(-c4cnn(CCO)c4)nc3c2)c1`, the melting point stood at 163.47 °C.

For the molecule `COc1cc(OC)cc(N(CCCO)c2ccc3ncc(-c4cn[nH]c4)nc3c2)c1`, the melting point is 202 °C and 202.6 °C. Then `COc1cc(OCC2CC2)cc(N(CC2CC2)c2ccc3ncc(-c4cnn(C)c4)nc3c2)c1`, with 176.3 °C. As for `COc1cc(OC)cc(N(CCCO)c2ccc3ncc(-c4cnn(CCO)c4)nc3c2)c1`, the melting point is 142 °C and 142.35 °C. Under `COc1cc(OC)cc(N(CCCO)c2ccc3ncc(-c4cnn(C)c4)nc3c2)c1` stands 168 °C; under `COc1cc(OC)cc(N(CCn2cccn2)c2ccc3ncc(-c4cnn(C)c4)nc3c2)c1`, 168 °C; under `COc1cc(OC)cc(N(CCCN)c2ccc3ncc(-c4cnn(CCS(C)(=O)=O)c4)nc3c2)c1`, 172.65 °C. As for `COCCc1cc(OC)cc(N(CC2CC2)c2ccc3ncc(-c4cnn(C)c4)nc3c2)c1`, the melting point was determined as 130 °C. Under `COc1cc(OC)cc(N(CC2CC2)c2ccc3ncc(-c4cnn(CCO)c4)nc3c2)c1` stands 147.5 °C and 147.56 °C; under `COc1cc(OC)cc(N(CCNC(C)C)c2ccc3ncc(-c4cnn(CCCN)c4)nc3c2)c1`, 170 °C; under `COc1cc(OC)cc(N(CCO)c2ccc3ncc(-c4c(C)nn(C)c4C)nc3c2)c1`, 190 °C. Under `COc1cc(OC)cc(N(CCC(=O)NCC(F)(F)F)c2ccc3ncc(-c4cnn(C)c4)nc3c2)c1` stands 196 °C; under `CNC(=O)CN(c1cc(OC)cc(OC)c1)c1ccc2ncc(-c3cnn(C)c3)nc2c1`, 252 to 254 °C and 253 °C; under `C#CCN(c1ccc2ncc(-c3cnn(C)c3)nc2c1)c1c(Cl)c(OC)cc(OC)c1Cl`, 220 °C.

In turn, `COc1cc(OC)cc(N(CCS(C)(=O)=O)c2ccc3ncc(-c4cnn(C)c4)nc3c2)c1` displayed a melting point of 209 °C. Under `COc1cc(OC)cc(N(CCNC(=O)C2CCCN(C)C2)c2ccc3ncc(-c4cnn(C)c4)nc3c2)c1` (stereo not drawn) stands 142 °C and 141.79 °C; under `COc1cc(OC)cc(N(C[C@@H](O)CNC(C)C)c2ccc3ncc(-c4cnn(C)c4)nc3c2)c1` (as salt: HCl), 94.44 °C. Under `COc1cc(Cl)cc(N(CCCN2CCCC2)c2ccc3ncc(-c4cnn(C)c4)nc3c2)c1` (as salt: HCl) stands 162 °C and 161.91 °C. Then `COc1cc(OC)cc(N(CCN(CCCN)C(C)C)c2ccc3ncc(-c4cnn(C)c4)nc3c2)c1` (as salt: HCl), with 210 °C; and `COc1cc(OC)cc(N(CC#CC2CCNCC2)c2ccc3ncc(-c4cnn(C)c4)nc3c2)c1` (as salt: HCl), with 194 °C and 189 °C. `COc1cc(OC)cc(N(CC2CCNCC2)c2ccc3ncc(-c4cnn(C)c4)nc3c2)c1` (as salt: HCl) showed a melting point of 163 °C. Then `COc1cc(OC)cc(N(CC(NC(C)C)C(C)C)c2ccc3ncc(-c4cnn(C)c4)nc3c2)c1` (stereo not drawn) (as salt: HCl), with 186 °C.
